Measured values from PubChem BioAssay AID504339 (National Center for Advancing Translational Sciences (NCATS), 2011).
The campaign covered roughly 390,000 compounds. About 17,000 (4.4%) were called active. Inconclusive results, whose numbers are uncertain, are shown with a selection of clear calls. The call rests on the fitted dose curve; in most records, active means well fitted inhibition curve with a large enough effect; inconclusive means small, poorly fitted or top-dose-only effect; inactive means no such curve, though single readings can be large or run the other way. Potencies of inconclusive entries are doubtful fits and often do not repeat.

What follows are compounds tested against Lysine-specific demethylase 4A (Homo sapiens) (UniProt O75164) (assay: qHTS Assay for Inhibitors of JMJD2A-Tudor Domain). Details: AlphaScreen JMJD2A-Tudor / H3K4me3 peptide binding; activity change, negative = inhibition: at 114 µM (top of the series).
Further: nearly all actives have a fitted effect of over 50% in size.
On the % scale 0 is the no-effect control and ±100 the full control effect; potency means the concentration at half of the fitted maximal effect; tags describe the fitted curve by direction and shape.

UniProt O75164, sequence (O75164 whole entry, looked up, the tested form may be a part): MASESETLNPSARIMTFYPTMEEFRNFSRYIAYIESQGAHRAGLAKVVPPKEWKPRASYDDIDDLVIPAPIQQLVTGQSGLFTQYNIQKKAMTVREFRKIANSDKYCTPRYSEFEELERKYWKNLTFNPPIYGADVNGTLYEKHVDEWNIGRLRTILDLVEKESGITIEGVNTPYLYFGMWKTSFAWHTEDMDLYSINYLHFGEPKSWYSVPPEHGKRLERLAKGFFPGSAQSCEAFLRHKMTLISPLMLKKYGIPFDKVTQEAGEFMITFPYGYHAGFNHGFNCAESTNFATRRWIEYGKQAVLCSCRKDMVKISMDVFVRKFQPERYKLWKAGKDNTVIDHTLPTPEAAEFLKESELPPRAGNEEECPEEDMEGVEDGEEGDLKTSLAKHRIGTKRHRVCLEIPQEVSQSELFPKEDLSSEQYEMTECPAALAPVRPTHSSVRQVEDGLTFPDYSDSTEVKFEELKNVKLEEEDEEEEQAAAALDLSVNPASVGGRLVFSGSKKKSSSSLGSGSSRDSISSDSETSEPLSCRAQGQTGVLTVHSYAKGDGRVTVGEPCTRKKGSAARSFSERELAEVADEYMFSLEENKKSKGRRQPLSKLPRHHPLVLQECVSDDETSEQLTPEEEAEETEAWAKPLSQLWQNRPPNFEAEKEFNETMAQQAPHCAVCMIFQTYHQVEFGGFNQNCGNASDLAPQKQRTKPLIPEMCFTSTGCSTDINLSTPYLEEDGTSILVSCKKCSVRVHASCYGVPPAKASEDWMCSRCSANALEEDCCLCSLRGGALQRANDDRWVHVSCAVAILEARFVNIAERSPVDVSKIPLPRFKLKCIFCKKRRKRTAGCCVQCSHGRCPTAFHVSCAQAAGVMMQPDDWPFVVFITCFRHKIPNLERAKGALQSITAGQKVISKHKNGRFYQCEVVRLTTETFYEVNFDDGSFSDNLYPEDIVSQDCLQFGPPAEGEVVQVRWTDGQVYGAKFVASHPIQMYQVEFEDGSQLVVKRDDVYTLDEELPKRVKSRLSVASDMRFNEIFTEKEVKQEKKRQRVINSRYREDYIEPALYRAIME

Row | SMILES | Potency | activity change, negative = inhibition
1 | CCOC(=O)C1=C(CSc2nc(CC)c(C)cc2C#N)OC(N)=C(C#N)C1c1ccccc1 (stereo not drawn) | inconclusive: 56.2 µM [inhibitor, partial curve] | –
2 | CCOC(=O)C1=C(COc2ccccc2)NC(=O)NC1c1ccc2ccccc2c1 (stereo not drawn) | – | inactive: -16.4%
3 | COc1ccccc1C(=O)O/N=C(/c1ccncc1)c1ccc([N+](=O)[O-])cc1 | inconclusive: 50.1 µM [inhibitor, partial curve] | –
4 | Cc1cc(C(=O)COc2cccnc2[N+](=O)[O-])c(C)n1Cc1cccs1 | inconclusive: 39.8 µM [inhibitor, partial curve] | –
5 | COc1ccc(CNC(=S)Nc2cccc(Cl)c2)cc1 | – | inactive: -12.8%
6 | c1cc2c(cc1CNc1ccc(N3CCOCC3)cc1)OCO2 | active: 50.1 µM | –
7 | C[C@H](NC(=O)c1ccco1)C(=O)Nc1nc(-c2ccccn2)cs1 | active: 44.7 µM | –
8 | COc1ccc2nc(-c3ccccc3)cc(OC)c2c1 | – | inactive: 51.4%
9 | Oc1c(C(c2ccccc2)N2CCc3ccccc3C2)sc2ncnn12 (stereo not drawn) | active: 31.6 µM | –
10 | COc1cccc(C(=O)NC2=NC(c3ccccc3F)CC(=O)N2)c1 (stereo not drawn) | – | inactive: -12.3%
11 | Oc1c(CN2CCCC2)cc(COCc2ccccc2)c2cccnc12 | active: 25.1 µM | –
12 | CO/N=C/c1ccc(N2CCN(C(=O)c3cccc(C(F)(F)F)c3)CC2)c([N+](=O)[O-])c1 | inconclusive: 70.8 µM [inhibitor, partial curve, poor fit] | –
13 | Cc1ccc(S(=O)(=O)N2CCOCC2)cc1NC(=O)CSc1nnc(C2CC2)n1C1CC1 | – | inactive: -17.3%
14 | COc1ccc(N2CC(C(=O)Nc3nnc(SCc4cccnc4)s3)CC2=O)cc1 (stereo not drawn) | – | inactive: -13.1%
15 | Cc1c(Cl)c(C(=O)N2CCCCCC2)nn1C | – | inactive: -16%
16 | O=C(Cn1c(=O)[nH]c2ccccc2c1=O)Nc1ccc2c(c1)OCO2 | inconclusive: 89.1 µM [inhibitor, single point] | –
17 | COc1ccc(Br)cc1CNCc1c(C(=O)O)c(C)n(Cc2ccccc2C)c1C | inconclusive: 50.1 µM [inhibitor, partial curve] | –
18 | Cc1ccc(NC(=S)N2CCN(S(=O)(=O)c3ccccc3)CC2)cc1C | – | inactive: -19.2%
19 | COc1cnc(-c2ccccn2)nc1Sc1ccc(F)cc1 | inconclusive: 100 µM [inhibitor, partial curve] | –
20 | Cc1ccc(S(=O)(=O)/N=C2\C=C(NS(=O)(=O)c3ccccc3)C(=O)c3ccccc32)c(C)c1 | active: 22.4 µM | –
21 | Cc1nnc(C)c2c(C)n(-c3ccccc3N)c(C)c12 | inconclusive: 79.4 µM [inhibitor, partial curve] | –
22 | COC(=O)c1cc(NC(=O)Cc2ccc(OC)c(OC)c2)cc(C(=O)OC)c1 | active: 44.7 µM | –
23 | O=C(NNC(=O)c1cccc(-n2cccc2)c1)c1ccc(F)cc1 | inconclusive: 44.7 µM [inhibitor, partial curve] | –
24 | CC1(C)O[C@H]2CC(=O)OC[C@@]23C1CC(=O)[C@]1(C)C3CC[C@@]2(C)[C@H](c3ccoc3)OC(=O)[C@H]3O[C@]321 (stereo partly drawn) | – | inactive: -22.4%
25 | COC(=O)C1Cc2c([nH]c3ccccc23)C(C)N1 (stereo not drawn) | inconclusive: 56.2 µM [inhibitor, partial curve] | –

Row | SMILES | Potency | activity change, negative = inhibition
26 | C/C(CCc1ccccc1)=N\NC(=S)NCCc1ccccc1 | inconclusive: 56.2 µM [inhibitor, partial curve] | –
27 | N#Cc1c(-c2ccccc2Cl)cc(C2CC2)nc1N | inconclusive: 31.6 µM [inhibitor, full curve] | –
28 | CCCC(=O)NC(c1ccc(OC)c(OC)c1)c1c(O)ccc2ccccc12 (stereo not drawn) | inconclusive: 79.4 µM [inhibitor, partial curve] | –
29 | COc1cccc(C(c2c(NC(=O)c3ccccc3)sc(C)c2C)N2CCN(C)CC2)c1 (stereo not drawn) | inconclusive: 28.2 µM [inhibitor, single point] | –
30 | Cc1cc(N2C(=O)C(O)=C(C(=O)c3cccs3)C2c2cccc(O)c2)no1 (stereo not drawn) | inconclusive: 89.1 µM [inhibitor, single point] | –
31 | COC(=O)C1CCN(CCCOc2ccc(CN3CCN(c4ccc([N+](=O)[O-])cc4)CC3)cc2)CC1 | inconclusive: 50.1 µM [inhibitor, partial curve] | –
32 | CCOC(=O)C1CCN(S(=O)(=O)c2ccc3c(c2)CCN3C(=O)C2CCC2)CC1 | inconclusive: 20 µM [inhibitor, full curve] | –
33 | COc1cc(NC(=O)CN2C(=O)c3ccccc3S2(=O)=O)cc(OC)c1 | – | inactive: -23.2%
34 | COc1ccc(OCc2ccc(-c3nc(C#N)c(N4CCCCC4)o3)o2)cc1 | inconclusive: 3.98 µM [inhibitor, full curve] | –
35 | COc1ccc(-c2nc(N)nc(C)c2Oc2ccccc2Br)c(O)c1 | inconclusive: 50.1 µM [inhibitor, partial curve] | –
36 | Cc1ccc([N+](=O)[O-])cc1S(=O)(=O)Nc1ccc(C(=O)N2CCN(C(=O)c3ccco3)CC2)cc1 | active: 79.4 µM | –
37 | CCc1ccccc1Nc1sc(C(=O)c2cccc(OC)c2)c(N)c1S(=O)(=O)c1ccccc1 | inconclusive: 15.8 µM [inhibitor, full curve, poor fit] | –
38 | O=C(NCCCN1CCN(c2cccc(Cl)c2)CC1)c1cnn(-c2ccc(F)cc2)c1-n1cccc1 | inconclusive: 50.1 µM [inhibitor, partial curve] | –
39 | O=S(=O)(Nc1cc(Sc2cccc3cccnc23)c(O)c2ccccc12)c1ccc(F)cc1 | active: 17.8 µM | –
40 | CCCCCn1c(=O)c2ccccc2n2c(=S)[nH]nc12 | active: 6.31 µM | –
41 | CCN1CCC(O)(/C=C/c2ccc(C)cc2)C(C(=O)/C=C/c2ccc(C)cc2)C1 (stereo not drawn) | inconclusive: 56.2 µM [inhibitor, partial curve] | –
42 | O=[N+]([O-])c1ccccc1CN1CCN(Cc2ccccn2)CC1 | active: 0.794 µM | –
43 | COc1ccc(C2/C=C\CN(Cc3ccc(N(C)C)cc3)CC(=O)N2Cc2ccc(F)cc2)cc1 (stereo not drawn) | active: 25.1 µM | –
44 | COc1c(/C=N/Nc2ccc(C(=O)O)cc2)c(CCN(C)C(C)=O)cc2c1OCO2 | – | inactive: 3.06%
45 | CCC1=C(c2ccc(C)cc2)S(=O)(=O)N=C1N1CCC(C(=O)NCc2ccc(N(C)C)cc2)CC1 | inconclusive: 50.1 µM [inhibitor, partial curve] | –
46 | CCNc1nc(-c2cc3ccccc3o2)cs1 | inconclusive: 50.1 µM [inhibitor, partial curve] | –
47 | N#C/C(=N\Nc1ccccc1)C(=N)N1CCOCC1 | – | inactive: -24%
48 | Cc1ccc(NC(=O)CCN2CCN(C/C=C/c3ccccc3)CC2)cc1C | inconclusive: 50.1 µM [inhibitor, partial curve] | –
49 | O=C(Nc1ccc(OC(F)(F)F)cc1)c1noc2c1CCCC2 | – | inactive: 5.46%
50 | O=C(CNC(=O)c1ccncc1)N/N=C/c1ccc(O)cc1O | inconclusive: 89.1 µM [inhibitor, single point] | –

Row | SMILES | Potency | activity change, negative = inhibition
51 | C/C(CC(=O)N(C(C)C)C(C)C)=N\NC(=O)c1ccccc1Br | inconclusive: 63.1 µM [inhibitor, partial curve] | –
52 | NC(=O)c1ccc(CN2CCC(Cc3ccccc3)CC2)cc1 | – | inactive: -11.7%
53 | Cc1ccc(NC(=O)CSc2nc3ccccc3c3nc(CCc4c(C)n[nH]c4C)nn23)cc1F | inconclusive: 12.6 µM [inhibitor, full curve] | –
54 | COc1cc(NC(=O)c2nnn(CC(=O)Nc3cc(C)ccc3C)c2N)cc(OC)c1 | – | inactive: 4.53%
55 | Cc1nn(-c2ccccc2)c(N2CCCC2)c1/C=N/Nc1ccc(S(=O)(=O)Nc2ccccc2)cc1[N+](=O)[O-] | active: 5.01 µM | –
56 | CCN(CC)S(=O)(=O)c1ccc(NC(=O)c2cccnc2Cl)c(NC(=O)c2cccnc2Cl)c1 | active: 31.6 µM | –
57 | Cc1cccc(N=NC(=S)NNc2cccc(C)c2)c1 | active: 25.1 µM | –
58 | CC(Sc1nc(C2CC2)n(-c2ccccc2)n1)C(=O)c1c(N)n(C)c(=O)n(C)c1=O (stereo not drawn) | – | inactive: -2.21%
59 | CCc1cccc(NC(=O)CN(C)S(=O)(=O)c2ccc3[nH]c4c(c3c2)CCCC4)c1 | inconclusive: 20 µM [inhibitor, full curve] | –
60 | CCCC1CCC(=NNC(=S)NCCc2ccccc2)CC1 (stereo not drawn) | inconclusive: 20 µM [inhibitor, partial curve] | –
61 | Cc1cc(C)c2c(-n3cccc3)c(C(=O)NNS(=O)(=O)c3ccccc3)sc2n1 | inconclusive: 12.6 µM [inhibitor, partial curve] | –
62 | Cc1ccc(/C=c2\sc3nc(-c4cccs4)nn3c2=O)o1 | inconclusive: 44.7 µM [inhibitor, partial curve] | –
63 | Cc1ccc(-c2csc(NC(=O)c3ccno3)n2)cc1 | active: 79.4 µM | –
64 | COc1ccc(N2CCC(CNC(=S)Nc3c(C)cccc3C)C2)cc1 (stereo not drawn) | active: 39.8 µM | –
65 | CCOc1ncccc1C(=O)Nc1ccc(C)c(S(=O)(=O)N2CCCCCC2)c1 | active: 20 µM | –
66 | Cc1nc2ccc(S(=O)(=O)N(CC(=O)Nc3ccc(F)cc3)Cc3ccccc3)cc2s1 | – | inactive: -6.33%
67 | Cc1cc(C(=O)COC(=O)c2ccco2)c(C)n1Cc1ccco1 | inconclusive: 63.1 µM [inhibitor, partial curve] | –
68 | Fc1ccccc1-c1nc(NCCCN2CCOCC2)c2ccccc2n1 | – | inactive: -3.42%
69 | CCN(CC)c1ccc(/C=C(\C#N)C(N)=S)cc1 | – | inactive: -10.3% [at 11.4 µM]
70 | O=C(OCc1nc2ccccc2[n+]([O-])c1C(=O)c1ccccc1)c1cccs1 | active: 79.4 µM | –
71 | CCNC(=S)Nc1ccc(N(c2ccccc2)C(C)C)cc1 | inconclusive: 56.2 µM [inhibitor, partial curve] | –
72 | CCOc1ccc(C(=O)N2CCC(c3nnc(-c4ccccc4OC)o3)CC2)cc1 | – | inactive: -10.6%
73 | Oc1cc2c(cc1O)C(c1ccccc1)CNCC2 (stereo not drawn) | active: 31.6 µM | –
